The RNAGym collection of RNA variant scans (doi:10.1093/nar/gkz1192)
Read counts are not given, so values of variants with three or more changes are uncertain.

B1: CPEB3 Ribozyme (parent)
chain: UAACAGGGGGCCACAGCAGAAGCGUUCACGUCGCAGCCCCUGUCAGAUUCUGGUGAAUCUGCGAAUUCUGCUGUAUAUCUC

Variants of: B1
Test: self-cleavage, relative activity (ratio to wild type); higher = more cleavage; in vitro, sequencing
Procedure, shortened: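 CPEB3 self-cleaving ribozyme mutant libraries were made by rounds of error-prone PCR, barcoded, and transcribed in vitro with T7 RNA polymerase for 5 hours at 37°C. Cleavage occurred during transcription and a 15 min DNase I step before EDTA stop. RNAs were reverse transcribed with template switching and Illumina-sequenced, with DNA sequencing mapping barcodes to variants. Relative activity is the variant's cleaved/total read fraction divided by wild type's (minimum 5 reads), averaged across three batches.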

**Q.** With UAACAGGGGGCCCCAGCAGAAGCGAUCACGUCGCUGCCCCUGUCAGAUUCUGGUGAGUCUGCGAAUUCUGCUGUAUAUCUC as the variant, how does the self-cleavage read?
**A.** Its self-cleavage is 0.18.

**Q.** For UAACAGGGGGCCCCAGCAGAAGCGACCACGUCGCAGCCCCUGACAGAUUCUGGUGAAUCUGCGAAUUCUGCUGUAUAUCUC, which self-cleavage is on record?
**A.** The self-cleavage was 0.3.

**Q.** Which self-cleavage does the source give for UAACAGGGGGCCCCAGCAGAAGCGCUCGCGUCGCAGCCCCUGUCAGAUUCUGGCGAAUCUGCGAAUUCUGCUGUAUAUCUC here?
**A.** Its self-cleavage is 0.

**Q.** For UAACAGGGGGCCCCAGCAGAAGCGCUCACGUCGCGGCCCCUGUCGGAUUCUGGCGAAUCUGCGAAUCCUGCUGUAUAUCUC, which self-cleavage is on record?
**A.** The self-cleavage was 0.

**Q.** Which self-cleavage does the source give for UAACAGGGGGCCCCAGCAGAAGCGCUCACGUCGCAGCCCCUGUCAGAUUCUGGUGAAUCUGCGAAUUCUGCUGUGUAUCUC here?
**A.** Its self-cleavage is 0.12.

**Q.** With UAACAGGGGGCCCCAGCAGAAGCGCUCACGUCGCAGCCACUGUCAGAUUCUGGUGAAUCUGCGAAUUCUGCUGUAUAUCUC as the variant, how does the self-cleavage read?
**A.** Its self-cleavage is 0.14.

**Q.** Which self-cleavage does the source give for UAACAGGGGGCCCCAGCAGAAGCGCUCACGUCGCAGCCGCUGUCUGAUUCUGGUGAAUCUGCGAAUUCUGCUGUAUAUCUC here?
**A.** The self-cleavage was 0.07.

**Q.** For UAACAGGGGGCCCCAGCAGAAGCGCUCACGUCGCAGCCCCUGUCAGAUUCUGGUGAAUCUGCGAAUCCUGCUGUAUAUCCC, which self-cleavage is on record?
**A.** The self-cleavage was 0.1.

**Q.** For UAACAGGGGGCCCCAGCAGAAGCGCUCACGUCGCAGCCCCUGUCAGAUUCUGGUGAAUCUGCGAAUUCUGCAGUAUAUCUC, which self-cleavage is on record?
**A.** The self-cleavage was 0.17.

**Q.** For UAACAGGGGGCCCCAGCAGAAGCGGUCACGUCGCGGGCCCUGUCAGAUUCUGGUGAAUCUGCGUAUUCUGCUGUAUACCUC, which self-cleavage is on record?
**A.** Its self-cleavage is 0.04.

**Q.** Which self-cleavage does the source give for UAACAGGGGGCCCCAGCAGAAGCGUACACGUCGCAGCCCCUGUCAGAUUCUGGUGAAUCUGCGAAUUCUGCUGUGUAUCUC here?
**A.** The self-cleavage was 0.31.

**Q.** With UAACAGGGGGCCCCAGCAGAAGCGUACACGUCGCAGCCCCUGUCAGAUUCUGGUGAAUCCGCGAAUUCUGCUGUAUAUCUC as the variant, how does the self-cleavage read?
**A.** The self-cleavage was 0.44.

**Q.** Which self-cleavage does the source give for UAACAGGGGGCCCCAGCAGAAGCGUCCACGUCGCAGCACGUGUCAGAUUCUGGUGAAUCUGCGAAUUCUGCUGUAUAUCCC here?
**A.** The self-cleavage was 0.06.

**Q.** For UAACAGGGGGCCCCAGCAGAAGCGUCCACGCCGCAGCCCCUGUCAGAUUCUGGUGAAUCUGCGAAUUCUGCUGUAUAUCUC, which self-cleavage is on record?
**A.** Its self-cleavage is 0.29.

**Q.** For UAACAGGGGGCCCCAGCAGAAGCGUGCACGUCGCAGCCCCUGUCAGAUUCUGGUGAAUCUGCGAAUUCAGCUGAAUAUCUC, which self-cleavage is on record?
**A.** Its self-cleavage is 0.06.

**Q.** Which self-cleavage does the source give for UAACAGGGGGCCCCAGCAGAAGCGUUCACGACGCAGCCCCUAUCAGAUUCUGGUGAGUCUGCGAAUUCAGCUGUAUAUCUC here?
**A.** Its self-cleavage is 0.09.

**Q.** Which self-cleavage does the source give for UAACAGGGGGCCCCAGCAGAAGCGUUCACGCCGCAGCCCCUGUCAGAUUCUGGUGAAUCUGCGAGUUCUGCUAUACAUCUC here?
**A.** The self-cleavage was 0.36.

**Q.** Which self-cleavage does the source give for UAACAGGGGGCCCCAGCAGAAGCGUUCACGCCGCAGCCCCUGUCAGAUUCUGGUGAAUCCGCGAAUUCUGCUGUAUAUCUC here?
**A.** The self-cleavage was 0.17.

**Q.** For UAACAGGGGGCCCCAGCAGAAGCGUUCACGCCGCAGCCCCUGUCAGAUUCUGGUGAAUCUGCGAAUUCUGCCGUAUAUCUC, which self-cleavage is on record?
**A.** Its self-cleavage is 0.26.

**Q.** Which self-cleavage does the source give for UAACAGGGGGCCCCAGCAGAAGCGUUCACGUCGCAGCCCCAGUCAGAUUCUGAUGAAUCUGCGAAUUCUGCUGUAUAUCUC here?
**A.** The self-cleavage was 0.14.

**Q.** With UAACAGGGGGCCCCAGCAGAAGCGUUCACGUCGCAGCCCCAGUCAGAUUCUGGUGAAUCCGCGAAUUCUGCCGUAUAUCUC as the variant, how does the self-cleavage read?
**A.** Its self-cleavage is 0.12.

**Q.** With UAACAGGGGGCCCCAGCAGAAGCGUUCACGUCGCAGCCCCGGUCAGAUUCUGGUGUAUCCGCAAAUUCCGCUGUGUAUCUC as the variant, how does the self-cleavage read?
**A.** Its self-cleavage is 0.03.

**Q.** With UAACAGGGGGCCCCAGCAGAAGCGUUCACGUCGCAGCCCCUGACAGACUCUGGUGAAUCUGCGAAUUCCGCUGUAUAUCUC as the variant, how does the self-cleavage read?
**A.** Its self-cleavage is 0.08.

**Q.** With UAACAGGGGGCCCCAGCAGAAGCGUUCACGUCGCAGCCCCUGACAGAUACUGGUGAAUCUGCGAAUCCUGCUGUAUAUCUC as the variant, how does the self-cleavage read?
**A.** Its self-cleavage is 0.21.

**Q.** For UAACAGGGGGCCCCAGCAGAAGCGUUCACGUCGCAGCCCCUGACAGAUCCUGGUGAAUCCGCGAAUUCUGCUGUAUAUCUC, which self-cleavage is on record?
**A.** Its self-cleavage is 0.14.

**Q.** Which self-cleavage does the source give for UAACAGGGGGCCCCAGCAGAAGCGUUCACGUCGCAGCCCCUGCCAGAUUCUGGUGGACCUGCGAAUUCCGCUGUAUAUCUC here?
**A.** The self-cleavage was 0.11.

**Q.** With UAACAGGGGGCCCCAGCAGAAGCGUUCACGUCGCAGCCCCUGCCAGAUUCUGGUGAAUCUGCGAGUUUUGCUGUAUAUCUC as the variant, how does the self-cleavage read?
**A.** The self-cleavage was 0.24.

**Q.** Which self-cleavage does the source give for UAACAGGGGGCCCCAGCAGAAGCGUUCACGUCGCAGCCCCUGUCAGACUCUGGUGAAUCUGCGAAUUCUGCCGUAUAUCUC here?
**A.** The self-cleavage was 0.5.

**Q.** For UAACAGGGGGCCCCAGCAGAAGCGUUCACGUCGCAGCCCCUGUCAGAUUCAGGUGAAUCUGCGGAUUCUGCUGUUUAUCUC, which self-cleavage is on record?
**A.** Its self-cleavage is 0.79.

**Q.** For UAACAGGGGGCCCCAGCAGAAGCGUUCACGUCGCAGCCCCUGUCAGAUUCCGGCGAAUCUGCGAAUUCUGCUGUAUAUCUC, which self-cleavage is on record?
**A.** Its self-cleavage is 1.07.

**Q.** For UAACAGGGGGCCCCAGCAGAAGCGUUCACGUCGCAGCCCCUGUCAGAUUCUGGCGAAUCUGCGAAUUCAGCUGUAUAUCUC, which self-cleavage is on record?
**A.** The self-cleavage was 0.13.

**Q.** Which self-cleavage does the source give for UAACAGGGGGCCCCAGCAGAAGCGUUCACGUCGCAGCCCCUGUCAGAUUCUGGUGAAUCAGCGGAUUCUGCUGUAUAUCUC here?
**A.** Its self-cleavage is 0.49.

**Q.** Which self-cleavage does the source give for UAACAGGGGGCCCCAGCAGAAGCGUUCACGUCGCAGCCCCUGUCAGAUUCUGGUGAAUCCCCUAAUUCUGCUGUAUAUCUC here?
**A.** The self-cleavage was 0.23.

**Q.** With UAACAGGGGGCCGCCGAAGAAGCGUUCACGUCGCAGCCCCAAUCAGAUUCUGGUGAAUCUGCGAAUUCUGCUGUACAUCUC as the variant, how does the self-cleavage read?
**A.** Its self-cleavage is 0.24.
